Assay results from PubChem BioAssay AID1030 (National Center for Advancing Translational Sciences (NCATS), 2008).
The whole screen tested about 220,000 compounds, of which about 16,000 (7.3%) were called active. Inconclusive means that the source gave no clear call. Such entries were picked first, then a sample of the others. Calls follow the shape of the dose curve; as a rule, active = well fitted inhibition curve with a large enough effect (not every such curve was filed as active); inconclusive = small, poorly fitted or top-dose-only effect, or another doubt; inactive = no such curve, though single readings can be large or run the other way. Potencies of inconclusive entries are left out as doubtful fits.

biological target: Aldehyde dehydrogenase 1A1 (Homo sapiens) (UniProt P00352); assay: qHTS Assay for Inhibitors of Aldehyde Dehydrogenase 1 (ALDH1A1); conditions: Purified ALDH1A1, NADH fluorescence, propionaldehyde substrate; series mostly up to 75.3 µM; activity, negative = inhibition: at the top concentration;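 as to activity, negative = inhibition: plate controls were no enzyme wells and a reference inhibitor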
Chain of UniProt P00352 (P00352 whole entry, looked up): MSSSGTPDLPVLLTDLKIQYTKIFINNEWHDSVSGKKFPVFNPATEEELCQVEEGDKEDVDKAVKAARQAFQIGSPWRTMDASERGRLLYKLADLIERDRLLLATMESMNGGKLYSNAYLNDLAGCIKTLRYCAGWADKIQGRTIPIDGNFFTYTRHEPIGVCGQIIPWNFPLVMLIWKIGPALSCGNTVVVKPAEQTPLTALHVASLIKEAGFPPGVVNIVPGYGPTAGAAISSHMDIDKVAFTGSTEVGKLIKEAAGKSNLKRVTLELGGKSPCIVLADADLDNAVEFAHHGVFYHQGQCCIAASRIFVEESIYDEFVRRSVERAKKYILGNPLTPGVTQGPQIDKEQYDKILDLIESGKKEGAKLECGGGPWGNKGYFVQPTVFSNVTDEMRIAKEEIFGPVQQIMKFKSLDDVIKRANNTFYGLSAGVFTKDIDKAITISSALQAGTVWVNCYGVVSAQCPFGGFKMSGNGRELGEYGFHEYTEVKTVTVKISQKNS
Potency is read from the fitted curve at half-maximal effect; tags tell the direction and shape of the fitted curve.

SMILES | Potency | activity, negative = inhibition
CSC1=C(C#N)C(c2cccs2)CC(=O)N1C (stereo not drawn) | inconclusive [inhibitor, partial curve] | 
S=C(NCCc1c[nH]c2ccccc12)NC1CCCCC1 | inconclusive [inhibitor, single point] | 
N#C/C(=C\c1ccc(-c2cccc([N+](=O)[O-])c2)o1)c1nnc(N2CCOCC2)n1-c1ccccc1 | active: 7.94 µM | 
COc1ccc(OCCNC(=O)Nc2cc(F)c(F)cc2Cl)cc1 |  | inactive: 11.1%
COC(=O)C1=C(C(=O)OC)[C@@H]2Nc3ccccc3[C@@]23C[C@@H](C(=O)OC)N(C(=O)C2CCC2)C3=N1 |  | inactive: 29.3% [at 13.5 µM]
Cc1cc(C)c(OCC(=O)Nc2ccc3c(c2)OCO3)cc1C | inconclusive [inhibitor, single point] | 
Cc1cc(C)n(-c2ccc(C(=O)Nc3nc4ccccc4s3)cc2)n1 | inconclusive [inhibitor, single point] | 
O=C1/C(=C/c2cccnc2)Oc2cc(OS(=O)(=O)c3ccc(Cl)cc3)ccc21 | active: 1.58 µM | 
NCCC(O)C(=O)NC1C[C@@H](N)[C@H](O[C@@H]2OC(CN)C(O)C(O)C2O)C(O)[C@H]1O[C@H]1OC(CO)C(O)C(N)C1O (stereo partly drawn) |  | inactive: 4.63%
Cc1cc(C(=O)CSc2nnnn2-c2ccccc2)c(C)n1CCc1ccccc1 | inconclusive [inhibitor, full curve] | 
O=C1O[C@@H]([C@@H](O)CO)[C@@H](O)[C@H]1O |  | inactive: 7.79% [at 20.9 µM]
COc1ccc(Cl)cc1NC(=O)CN1CCCCCC1 | active: 17.8 µM | 
Cc1ccc(C(=O)NCCCn2ccnc2)cn1 | inconclusive [inhibitor, single point] | 
CC(=O)OC[C@@H]1O[C@H](C/C=N\OC[C@@H](O)COCc2ccco2)C=C[C@@H]1OC(C)=O |  | inactive: 7.8% [at 13.5 µM]
CC(=O)Nc1ccc2nc(NC(=O)COc3ccccc3Cl)sc2c1 |  | inactive: -2.2%
CCN1CCN(C(=O)CCc2nnc(CCCCc3ccccc3)o2)[C@@H](C)C1=O | active: 8.91 µM | 
Cc1cc(C)n2c(SCC(=O)Nc3ccccc3)nnc2n1 |  | inactive: -0.715%
COc1ccc2c(c1)OC(O)(C(F)(F)F)CC2=O (stereo not drawn) | inconclusive [inhibitor, single point] | 
Cc1ccc(NC(=O)Cn2c(O)c(N=NC(=O)c3ccncc3)c3ccccc32)cc1 | active: 4.47 µM | 
Cn1ccnc1SCC(=O)NC12CC3CC(CC(C3)C1)C2 | inconclusive [inhibitor, single point] | 
COc1ccc(N2CCN(C(c3cccs3)C(C)NS(=O)(=O)c3ccccc3)CC2)cc1 (stereo not drawn) | inconclusive [inhibitor, single point] | 
CCCOC(=O)Nc1cccc(C(C)=O)c1 |  | inactive: -1.47%
Cc1cc(C)nc(NS(=O)(=O)c2ccc(NC(=O)CN3C(=O)c4ccccc4C3=O)cc2)n1 |  | inactive: 5.94%
COc1ccc(N(C(=O)c2cccc([N+](=O)[O-])c2)S(=O)(=O)c2cccs2)cc1 | active: 25.1 µM | 
CN(C(=O)COC(=O)c1ccc2c(c1)NC(=O)CS2)C1CCS(=O)(=O)C1 (stereo not drawn) |  | inactive: 4.77%

SMILES | Potency | activity, negative = inhibition
COc1cc2c(cc1OC)C1=CC(=O)C(=O)N1C(C)(C)C2 | inconclusive [inhibitor, single point] | 
CC(C(=O)NC1CCCC1)N(Cc1ccco1)C(=O)c1snc(C(=O)NC2CCCC2)c1N (stereo not drawn) | inconclusive [inhibitor, single point] | 
O=C(Nc1ccccc1)c1ccc(-c2ccc(Br)cc2)o1 |  | inactive: 5.7%
Cc1cc(C)c(S(=O)(=O)Nc2cc(SCC(=O)O)c(O)c3ccccc23)cc1C | inconclusive [inhibitor, single point] | 
CC(=O)N1CCc2cc(S(=O)(=O)NC(C(=O)NC3CCCc4ccccc43)C(C)C)ccc21 (stereo not drawn) |  | inactive: 13.4%
CCN(CC)S(=O)(=O)c1ccc(NC2c3ccccc3C(=O)N2Cc2ccc3c(c2)OCO3)cc1 (stereo not drawn) | inconclusive [inhibitor, single point] | 
Cc1ccccc1/C=N/NC(=O)c1sccc1C |  | inactive: 3.35%
CN(CC(=O)Nc1ccccc1N1CCOCC1)S(=O)(=O)c1ccc(Cl)cc1 | inconclusive [inhibitor, single point] | 
O=c1cnc2cnc(Oc3ccccc3)nc2n1CCc1ccccc1 | inconclusive [inhibitor, single point] | 
Cc1ccc(S(=O)(=O)NCCSc2ccccc2)cc1[N+](=O)[O-] | active: 7.08 µM | 
Cc1nc2sc(C(c3ccco3)N3CC(C)OC(C)C3)c(O)n2n1 (stereo not drawn) | inconclusive [inhibitor, single point] | 
COCCCNC(=O)c1ccc(CNS(=O)(=O)c2ccc(NC(C)=O)cc2)cc1 | active: 4.47 µM | 
CCOc1ccc(C(C)=O)cc1N1C(=O)C2C3C=CC(O3)C2C1=O (stereo not drawn) | active: 22.4 µM | 
CN(/N=C/c1cccnc1)c1cnn(-c2ccc(F)c(Cl)c2)c(=O)c1Cl | inconclusive [inhibitor, single point] | 
CC(C)N(Cc1nccn1C)C(=O)CC1C(=O)NCCN1Cc1ccccc1C(F)(F)F (stereo not drawn) | active: 39.8 µM | 
CN1CCc2c(sc3c2c(=O)n(-c2ccccc2)c2nnc(SCc4ccc(Cl)cc4)n32)C1 | inconclusive [inhibitor, single point] | 
COc1ccc(-n2c(=O)cc(N3CCN(c4ccccc4OC)CC3)[nH]c2=O)cc1 |  | inactive: -2.32%
CCOc1cc2[nH]c(=O)n(Cc3ccc(C(=O)NCCCN4CCCC4=O)cc3)c(=O)c2cc1OCC | inconclusive [inhibitor, single point] | 
COc1ccc(C2Nc3ccccc3C(=O)N2c2ccccc2)cc1CSc1ccccn1 (stereo not drawn) | inconclusive [inhibitor, partial curve] | 
N#CC(c1ccc(Cl)cc1)c1ncc(C(F)(F)F)cc1Cl (stereo not drawn) |  | inactive: 5.64%
COc1cc(C(=O)NC(=S)Nc2ccc(N3CCCC3)cc2)cc(OC)c1OC | active: 28.2 µM | 
CCOc1ccc(-n2c(SC(C)C)nc3c(c2=O)SCC3)cc1 | inconclusive [inhibitor, single point] | 
COc1ccc2nc(SCC(=O)Nc3ccc(S(=O)(=O)Nc4nccc(C)n4)cc3)[nH]c2c1 | inconclusive [inhibitor, partial curve, poor fit] | 
Cc1nn(Cc2ccc(C(=O)NC(C)(C)C)o2)c(C)c1Br | inconclusive [inhibitor, single point] | 
Cc1ccc(S(=O)(=O)NCC(=O)N/N=C/c2ccccc2O)cc1 | inconclusive [inhibitor, single point] | 

SMILES | Potency | activity, negative = inhibition
CN1CCN(C(=O)CCN2C(=O)S/C(=C/c3ccc(Cl)cc3)C2=O)CC1 | inconclusive [inhibitor, single point] | 
CCC(=O)OC1C2CC3=C4CC(=O)OC(c5ccoc5)[C@]4(C)CCC3[C@@](C)(C2=O)C(CC(=O)OC)C1(C)C (stereo partly drawn) |  | inactive: 7.76%
CC(C)(C)c1ccc(S(=O)(=O)Nc2cccnc2)cc1 | inconclusive [inhibitor, partial curve] | 
O=C(c1ccc2nc(N3CCCCC3)sc2c1)N1CCN(c2ccccn2)CC1 | active: 28.2 µM | 
COc1ccc(CNC(=O)C/C(C)=N/NC(=O)COc2ccc(C)cc2Br)cc1 | active: 10 µM | 
NNc1nc2sc3c(c2c(=O)[nH]1)CCc1ccccc1-3 |  | inactive: -1.17%
COc1cccc(-c2cncnc2NCc2cccs2)c1 | inconclusive [inhibitor, single point] | 
CC(NC(=O)COC(=O)Cc1ccc(-c2ccccc2)cc1)c1ccccc1 (stereo not drawn) |  | inactive: 3.43%
Cc1ccc(Br)cc1S(=O)(=O)N1CCN(c2ccccc2)CC1 |  | inactive: -1.97%
O=C(c1ccccc1)N(Cc1ccc(F)cc1)C1CCS(=O)(=O)C1 (stereo not drawn) | inconclusive [inhibitor, single point] | 
Fc1ccc(-n2[nH]nnc2=S)cc1N1CCCC1 | active: 14.1 µM | 
FC(F)(F)c1ccc(C2Nc3cccc4cccc(c34)N2)cc1 | inconclusive [inhibitor, single point] | 
CCCC(=O)Nc1nc2c(ncn2[C@@H]2O[C@H]3COP(=O)(O)O[C@@H]3[C@@H]2OC(=O)CCC)c(=O)[nH]1 | inconclusive [inhibitor, single point] | 
CCN(CC)CCNc1nc(-c2cccs2)c(CC(=O)O)s1 | active: 20 µM | 
CCC(C)NC(=O)C1c2cc(OC)c(OC)cc2C(=O)N(C)C1c1cccs1 (stereo not drawn) |  | inactive: -1.4%
CCCCCc1ccc(-c2ccc(/C=C/C(N)=O)cc2)nc1 | inconclusive [inhibitor, partial curve] | 
COc1ccc(N2C(=O)CCC(C(=O)N3CCCCC3)C2c2ccc(OC)c(OC)c2)cc1 (stereo not drawn) |  | inactive: 0.895%
O=C1NC(c2ccccc2)=N/C1=C/c1ccco1 | active: 17.8 µM | 
O=C(CN1CCSC1=NCc1ccccc1)c1ccccc1 | inconclusive [inhibitor, single point] | 
CCCn1nnc(NC(=O)c2cccc(OCc3ccccc3)c2)n1 | inconclusive [inhibitor, single point] | 
S=c1nc(-c2cccc(Br)c2)[nH][nH]1 | inconclusive [inhibitor, partial curve] | 
CCN(CC)C(=O)c1ccc(C(=O)c2ccccc2)cc1 | inconclusive [inhibitor, partial curve] | 
Cn1cccc1/C=C1\CC(C(C)(C)C)C/C(=C\c2cccn2C)C1=O (stereo not drawn) | inconclusive [inhibitor, partial curve] | 
